Reference: PubChem BioAssay AID1346428 (National Center for Advancing Translational Sciences (NCATS), 2018)
“And” between values parts separate entries of the source, which are not always exact repeats. Equal values may be shown once. Screen size: about 48,000 compounds; about 1,200 (2.5%) were called active. Another 2% or so got no clear call; they are omitted.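 How the source made its calls: active means activation of at least 60% and not above a set upper limit (about 1 call in 100 departs from these limits); inconclusive means activation of 40% to 60%, or above that upper limit; inactive means activation under 40%.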 This is one part of the list.

Molecular target: Probable G-protein coupled receptor 32 (Homo sapiens) (UniProt O75388)
UniProt O75388, sequence (O75388 whole entry, looked up): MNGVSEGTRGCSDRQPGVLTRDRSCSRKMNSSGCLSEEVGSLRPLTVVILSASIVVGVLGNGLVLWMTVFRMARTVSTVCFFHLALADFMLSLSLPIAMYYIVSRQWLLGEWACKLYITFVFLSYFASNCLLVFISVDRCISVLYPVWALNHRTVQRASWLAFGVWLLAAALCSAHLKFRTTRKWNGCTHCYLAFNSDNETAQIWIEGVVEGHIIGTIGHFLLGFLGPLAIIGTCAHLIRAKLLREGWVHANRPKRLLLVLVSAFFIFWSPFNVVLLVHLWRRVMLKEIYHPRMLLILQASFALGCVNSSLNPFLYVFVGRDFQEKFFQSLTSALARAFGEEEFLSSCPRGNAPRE
Experiment: qHTS for Agonists of Human Resolvin D1 Receptor DRV1; further: 0% is about no effect
Details: CHO-K1 GPR32 beta-arrestin PathHunter luminescence, 90 min; at 76.9 µM; stronger effect = higher value; zero percent set by DMSO-only wells
In short: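 Cells are plated overnight, treated with compounds in DMSO for 90 minutes at 37 °C, and developed with PathHunter detection reagent for 1 hour before luminescence is read; signal reflects beta-arrestin binding to GPR32 in engineered CHO-K1 cells.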

SMILES | activation
CC(CNC(=O)c1ccc2nc(CCc3ccccc3)oc2c1)c1ccccc1 (configuration not stated) | inactive: -12.4%
COc1ccc(NC(=O)c2ncoc2-c2ccco2)cc1Cl | inactive: 14.2%
Cc1cccc(C(=O)Nc2ccc3nc(SCC(=O)N4CCc5ccccc54)sc3c2)c1 | inactive: 2.31%
COc1ccc(OC)c(-c2nnc3n(CCc4ccccc4)c(=O)c4ccccc4n23)c1 | inactive: -0.955%
COc1ccc(CNC(=O)Cn2ccc3cc(S(=O)(=O)N4CCCC4)ccc32)c(OC)c1 | inactive: 8.4%
CCn1c(=O)n(-c2ccc3c(c2)OCO3)c2nc(-c3cc(OC)ccc3OC)nc(C(N)=O)c21 | inactive: 10.8%
COc1ccc(CNC(=O)c2cc(C3CC3)nc3c2c(C)nn3-c2cccc(Cl)c2C)cc1 | inactive: -5.8%
O=C(Cc1ccccc1)Nc1sc2c(c1C(=O)Nc1ccccc1Cl)CCCC2 | inactive: 17.4%
COc1cc(NC(=O)c2nc(-c3ccc(Cl)cc3)n3c2CCCCC3)cc(OC)c1OC | inactive: -6.39%
COc1ccc(CNC(=O)c2ccc(NC(=O)N3CCSc4ncccc43)cc2)c(OC)c1 | inactive: -0.325%
Cc1ccccc1C(=O)Nc1cccc(C(=O)OCc2cc(=O)n3c(C)csc3n2)c1 | inactive: -16.3%
CCOc1ccc2oc(=O)cc(CN3CCN(C(=O)c4cccc(Cl)c4)CC3)c2c1 | inactive: -16.6%
Cc1ccc(C)c(Nc2nn3c(=O)c4ccc(C(=O)N(C)Cc5ccccc5)cc4nc3s2)c1 | inactive: -9.66%
Clc1cccc(N2CCN(c3nc4ccccc4c4nc(-c5ccccc5)nn34)CC2)c1 | inactive: -0.255%
CCOc1ccc(-c2nc(CSCC(=O)NCCc3ccccc3)c(C)o2)cc1 | inactive: -5.89%
CCN1CCN(c2cc(C)c3cc(NC(=O)c4cc(OC)c(OC)c(OC)c4)ccc3n2)CC1 | inactive: 1.77%
COc1cccc(-c2nc(S(=O)(=O)c3ccc(C)cc3)c(NCc3ccccc3)o2)c1 | inactive: -5.52%
COc1ccc(N2C(=O)CS(=O)(=O)C23C(=O)N(Cc2ccccc2)c2ccccc23)cc1 (configuration not stated) | inactive: -8.86%
COc1cccc(CNC(=O)CCCn2c(=O)c3cccn3c3ccc(F)cc32)c1OC | inactive: -11.5%
Cc1cc(C)cc(NC(=O)Cn2c(=O)n(CCC(C)C)c(=O)c3cccnc32)c1 | inactive: 2.5%
CCc1ccc2oc(C(=O)N(Cc3cccc(Cl)c3)Cc3ccco3)c(C)c2c1 | inactive: 3.49%

SMILES | activation
Cn1c(=O)cc(SCC(=O)NCCc2ccc(Cl)cc2)c2cc(Cl)ccc21 | inactive: -3.48%
O=C(CSc1nc2ccccc2c2nc(-c3ccccc3)nn12)Nc1ccc(F)cc1 | inactive: -1.95%
O=C(Cn1c2ncccc2c(=O)n1-c1ccccc1)Nc1cccc(C(F)(F)F)c1 | inactive: 2.99%
COc1ccc(-c2cc(C(C)=O)c(C)n2CCC(=O)Nc2cccc(C)c2C)cc1 | inactive: -11.1%
CCc1nn2c(=O)cc(COC(=O)c3cccc(NC(=O)COc4ccccc4F)c3)nc2s1 | inactive: -4.46%
COc1ccc(Cl)cc1NC(=O)c1cc(=O)c2cc(C)cc(C)c2o1 | inactive: 0.382%
Cc1ccc(C)c(NC(=O)Cn2cc(S(=O)(=O)N3CCCC3)c(S(=O)(=O)N3CCCC3)c2)c1 | inactive: 1.56%
Cc1cccc(NC(=O)CSc2nc(C)cc(C)c2C(=O)Nc2ccc(Cl)cc2)c1 | inactive: 17.8%
CCc1cccc(NC(=O)Cn2c(=O)n(Cc3ccccc3)c(=O)c3c(C)c(C(=O)N(C)C)sc32)c1 | inactive: 9.36%
CCOc1ccccc1N(C)C(=O)c1cc(S(=O)(=O)NCc2ccc(C)cc2)ccc1F | inactive: 4.27%
CN1CCN(C(=O)c2cnn(-c3ccccc3)c2C2CCN(C(=O)OC(C)(C)C)CC2)CC1 | inactive: -11.6%
CCc1nnc(SC(CC)C(=O)NCCOC)c2cc3occc3n12 (configuration not stated) | inactive: -7.65%
Cc1ccc(CCNC(=O)Cn2ncc3c(=O)oc4ccccc4c32)cc1 | inactive: 12.7%
OCc1ccccc1O | inactive: -20.8%
COc1ccc(-c2nc3ccccc3o2)cc1NC(=O)COc1c(C)cc(Cl)cc1Cl | inactive: 12.3%
CCC(=O)C1=C(c2cccc([N+](=O)[O-])c2)N(C(=O)CC)n2c(nnc2C2CCCCC2)S1 | inactive: -42.7%
CCc1ccc2c(c1)c(=O)c(S(=O)(=O)c1ccccc1)cn2CC(=O)Nc1cc(C)ccc1C | inactive: -0.537%
COc1cc(NC(=O)CN(C)S(=O)(=O)c2ccc3c(c2)CCCC(=O)N3)cc(OC)c1OC | inactive: 21%
Cc1cccc(-c2nc3c4ccccc4n(CC(=O)Nc4cccc(F)c4)c(=O)n3n2)c1 | active: 75.6%
CC(C)(C)OC(=O)N1CCC(c2c(C(=O)N3CCN(c4ccccc4F)CC3)cnn2C(C)(C)C)CC1 | inactive: -8.25%
CCOC(=O)C1CCN(c2csc3ccc(C)cc3c2=O)CC1 | inactive: -26.1%

SMILES | activation
COC(=O)c1cc2sc(C)cc2n1Cc1nc(-c2cccc(Br)c2)oc1C | inactive: -17.8%
CCC(=O)N1CCc2cc(Br)cc(S(=O)(=O)CCC(=O)NCc3ccc(C)cc3)c21 | inactive: -5.25%
CCOC(=O)[C@@](C)(N)Cc1ccc(O)c(O)c1 | inactive: 15.7%
Cc1cc(O)c(C(c2ccccc2)N2CCN(c3ccccc3F)CC2)c(=O)n1Cc1ccco1 (configuration not stated) | inactive: -13.1%
COC(=O)c1sc(S(=O)(=O)N2CCN(c3ccc(OC)cc3)CC2)c(C(=O)OC)c1C | inactive: -7.11%
COc1ccc(CNC(=O)C(=O)Nc2ccccc2OC)cc1 | inactive: -5.26%
COc1ccc(OC)c(NC(=O)CSc2nccn2-c2cc(C)cc(C)c2)c1 | inactive: 6.92%
Cc1ccc(-c2nc3ccccc3[nH]2)cc1NC(=O)COc1ccc(Cl)cc1Cl | inactive: -3.54%
O=C(c1ccccc1)c1ccc2n1CCC2C(=O)O (configuration not stated) | inactive: -4.64% and inactive: -9.23%
CC(=O)Nc1c(C)nn(-c2ccccc2)c1N1CCC(C(=O)Nc2ccc(Cl)cc2C)CC1 | inactive: -7.47%
COc1cc(NC(=O)CN2C(=O)C(c3ccc(C)cc3)=NC23CCCCCC3)cc(OC)c1 | inactive: -32.6%
COc1ccc(-n2c(=O)c3ccc(C(=O)NCc4ccc(C)cc4)cc3n(Cc3ccc(F)cc3Cl)c2=O)cc1 | inactive: 16.2%
CC1(C)N=C(c2ccc(F)cc2)C(=O)N1CC(=O)Nc1ccccc1Cl | inactive: -12.9%
CCCC(=O)Nc1nc2c(s1)CC(C(C)(C)C)CC2 (configuration not stated) | inactive: -0.408%
COc1c(N2CCNC(C)C2)c(F)cc2c(=O)c(C(=O)O)cn(C3CC3)c12 (configuration not stated) | inactive: -17.5%
COc1ccc(N2CCN(C(=O)CCc3nnc4n(C)c(=O)c5sccc5n34)CC2)cc1 | inactive: -2.15%
Cc1ccc(CN2C(=O)CC(c3ccc(Cl)cc3)c3c(C)nn(-c4nc(C)cc(C)n4)c32)cc1 (configuration not stated) | inactive: -13.3%
COc1ccc(-n2nc3c(c2NC(=O)C(=O)NCc2ccccc2)CSC3)cc1 | inactive: -32.3%
Cc1ccc(Cn2c3ccccc3c3cnn(CC(=O)N4CCCCCC4)c(=O)c32)cc1 | inactive: -6.63%
COC(=O)c1ccc(NC(=O)CSc2nccn2Cc2ccc(Cl)cc2)cc1 | inactive: 4.18%
COC(=O)c1cc2oc(C)cc2n1CC(=O)Nc1ccc(OC)c(OC)c1 | inactive: -3.71%

SMILES | activation
CCOc1ccc(-n2c(=O)c3c(C)c(C)sc3n(Cc3c(F)cccc3Cl)c2=O)cc1 | inactive: -13.3%
Cn1c(=O)c(=O)n(C)c2cc(NC(=O)c3cccc(F)c3)c(Cl)cc21 | inactive: 12.4%
CCCSCCCNC(=O)C1CCCN(c2nn3cc(-c4ccc(OC)cc4)nc3s2)C1 (configuration not stated) | inactive: -28.7%
Cc1ccc2cccc(NC(=O)COc3cc(C)c(Cl)c(C)c3)c2n1 | inactive: 25.2%
CN(C)CCCN(C(=O)c1ccc(Br)s1)c1nc2ccc(F)cc2s1 | inactive: 40.3%
CCOc1ccccc1CNC(=O)CCCn1ncn2c(cc3occc32)c1=O | inactive: 1.99%
CCOc1ccc(C(=O)c2cn(CC(=O)Nc3ccc(F)cc3)c3cc4c(cc3c2=O)OCO4)cc1 | inactive: -8.2%
COc1ccc(N(CC(=O)NCc2ccccc2Cl)S(=O)(=O)c2c(C)nn(C)c2C)cc1 | inactive: -25.6%
COc1ccc(CCNC(=O)Cn2c(=O)nc(-c3ccccc3)c3ccccc32)cc1OC | inactive: -3.04%
Cc1nn(CC(=O)Nc2ccccc2C(F)(F)F)c(=O)c2cccn12 | inactive: -3.52%
CCCCN(CC)CCNC(=O)CN1C(=O)COc2ccc(S(=O)(=O)N3CCCC3)cc21 | inactive: -6.16%
CCOc1ccc(C(=O)Nc2c(C(=O)c3ccc(OC)cc3)oc3ccccc23)cc1 | inactive: -4.55%
Cc1ccccc1NC(=O)N1CCc2c(sc3c2CCCC3)C1c1ccccc1 (configuration not stated) | inactive: -3.5%
COc1ccc(NC(=O)c2ccc3nc(CCc4ccccc4)oc3c2)c(OC)c1 | inactive: -19.8%
O=C(NCCc1ccccc1)c1ccc(Cn2c(SCc3cccc(F)c3)nc3cccnc32)cc1 | inactive: -17.8%
COCCNC(=O)CCc1c(C)nc2c(-c3ccc(F)cc3)c(C)nn2c1C | inactive: 11.8%
COc1cc(C(CC(=O)Nc2ccc(F)cc2F)N2Cc3ccccc3C2=O)cc(OC)c1OC (configuration not stated) | inactive: -0.81%
COc1ccc(CCNC(=O)CCCCn2c(=O)c3ccccc3n(Cc3ccccc3C)c2=O)cc1OC | inactive: -24.5%
CCn1c(NCc2ccc(OC)cc2)nc2ccccc21 | inactive: -26.4%
